{"source": "paper PMC10331583", "about": "“Control of fibrosis with enhanced safety via asymmetric inhibition of prolyl‐tRNA synthetase 1” (EMBO Molecular Medicine, 2023)", "key": {"WI‐26 VA4 cells [1]": {"tested_on": "WI‐26 VA4 cells", "test": "CellTiter‐Glo assay (cytotoxicity)"}, "WI‐26 VA4 cells [2]": {"tested_on": "WI‐26 VA4 cells", "test": "Collagen ELISA (secreted pro‐collagen I)"}, "WI‐26 VA4 cells [3]": {"tested_on": "WI‐26 VA4 cells", "test": "Puromycin incorporation assay", "format": "cell-based, human", "conditions": "10 nM; 0.01 µM", "method": "After being rinsed with cold PBS twice, the cells were collected and resuspended in 200 μl of the carbonate bicarbonate buffer (Sigma Aldrich, C3041‐50CAP) with protease inhibitor. The cell lysates were obtained by sonication and centrifugation at 20,000 g for 15 min at 4°C. After protein quantification using a Pierce™ BCA Protein Assay Kit (Thermo Fisher Scientific, 23225), 400 ng of the proteins was coated to ELISA plates for 18 h at 4°C. […] The plates were rinsed with the washing buffer for three times after each antibody incubation step. […] The amount of puromycin incorporated in proteins was determined by measuring the absorbance at 450 nm (reference wavelength at 620 nm). Experimental values marked in red with strikethrough text in the Figure Source Data file were excluded from the analysis. These values were determined by considering the values of biological and technical replicates under the same condition, as well as the values at the former and later chemical concentrations."}}, "note": "“And” between values parts separate entries of the source, which are not always exact repeats. Identical values can stand only once. This continues a long series; more values of the same kind are listed elsewhere.", "data": [{"smiles": "O=C(CC1NCCCC1O)Cn1cnc2cc(Br)c(Cl)cc2c1=O", "note": "(stereo not drawn) [HF, Halofuginone, reference compound]", "values": [{"measurement": "CellTiter-Glo % of control", "setting": "WI‐26 VA4 cells [1]; 0.3 nM, Experiment #2, replicates, 0.0003 µM", "result": "115.42 % of control and 90.13 % of control"}, {"measurement": "CellTiter-Glo % of control", "setting": "WI‐26 VA4 cells [1]; 1 nM, Experiment #1, replicates, 0.001 µM", "result": "96.66 % of control"}, {"measurement": "CellTiter-Glo % of control", "setting": "WI‐26 VA4 cells [1]; 1 nM, Experiment #2, replicates, 0.001 µM", "result": "118.70 % of control and 87.76 % of control"}, {"measurement": "CellTiter-Glo % of control", "setting": "WI‐26 VA4 cells [1]; 3 nM, Experiment #2, replicates, 0.003 µM", "result": "118.55 % of control and 83.06 % of control"}, {"measurement": "CellTiter-Glo % of control", "setting": "WI‐26 VA4 cells [1]; 10 nM, Experiment #1, replicates, 0.01 µM", "result": "94.44 % of control"}, {"measurement": "CellTiter-Glo % of control", "setting": "WI‐26 VA4 cells [1]; 10 nM, Experiment #2, replicates, 0.01 µM", "result": "90.61 % of control"}, {"measurement": "CellTiter-Glo % of control", "setting": "WI‐26 VA4 cells [1]; 30 nM, Experiment #2, replicates, 0.03 µM", "result": "80.64 % of control"}, {"measurement": "CellTiter-Glo % of control", "setting": "WI‐26 VA4 cells [1]; 100 nM, Experiment #1, replicates, 0.1 µM", "result": "30.18 % of control"}, {"measurement": "CellTiter-Glo % of control", "setting": "WI‐26 VA4 cells [1]; 100 nM, Experiment #2, replicates, 0.1 µM", "result": "26.60 % of control"}, {"measurement": "CellTiter-Glo % of control", "setting": "WI‐26 VA4 cells [1]; 300 nM, Experiment #2, replicates, 0.3 µM", "result": "18.70 % of control"}, {"measurement": "CellTiter-Glo % of control", "setting": "WI‐26 VA4 cells [1]; 1000 nM, Experiment #1, replicates, 1 µM", "result": "18.92 % of control"}, {"measurement": "CellTiter-Glo % of control", "setting": "WI‐26 VA4 cells [1]; 1000 nM, Experiment #2, replicates, 1 µM", "result": "28.88 % of control"}, {"measurement": "CellTiter-Glo % of control", "setting": "WI‐26 VA4 cells [1]; 3000 nM, Experiment #2, replicates, 3 µM", "result": "9.38 % of control"}, {"measurement": "CellTiter-Glo % of control", "setting": "WI‐26 VA4 cells [1]; 10000 nM, Experiment #2, replicates, 10 µM", "result": "4.86 % of control"}, {"measurement": "CellTiter-Glo % of control", "setting": "WI‐26 VA4 cells [1]; 30000 nM, Experiment #2, replicates, 30 µM", "result": "1.57 % of control"}, {"measurement": "CellTiter-Glo % of control", "setting": "WI‐26 VA4 cells [1]; 100000 nM, Experiment #1, replicates, 100 µM", "result": "0.10 % of control and -0.08 % of control"}, {"measurement": "CellTiter-Glo % of control", "setting": "WI‐26 VA4 cells [1]; 100000 nM, Experiment #2, replicates, 100 µM", "result": "-0.13 % of control and 0.13 % of control"}, {"measurement": "Collagen, % of control (single replicates per experiment)", "setting": "WI‐26 VA4 cells [2]; 0.3 nM, 0.0003 µM", "result": "86.70 % of control and 76.16 % of control and 116.39 % of control and 102.94 % of control and 94.65 % of control and 98.90 % of control and 98.18 % of control and 96.93 % of control"}, {"measurement": "Collagen, % of control (single replicates per experiment)", "setting": "WI‐26 VA4 cells [2]; 1 nM, 0.001 µM", "result": "98.04 % of control and 96.86 % of control and 109.11 % of control and 102.23 % of control and 91.90 % of control and 133.86 % of control and 92.78 % of control and 98.00 % of control"}, {"measurement": "Efficacy, % of control, single replicate", "setting": "WI‐26 VA4 cells [2]; 1 nM, 0.001 µM", "result": "108.08 % of control and 107.58 % of control and 97.95 % of control"}, {"measurement": "Collagen, % of control (single replicates per experiment)", "setting": "WI‐26 VA4 cells [2]; 3 nM, 0.003 µM", "result": "97.69 % of control and 95.57 % of control and 101.47 % of control and 131.17 % of control and 96.01 % of control and 98.52 % of control and 85.47 % of control"}, {"measurement": "Efficacy, % of control, single replicate", "setting": "WI‐26 VA4 cells [2]; 3 nM, 0.003 µM", "result": "105.66 % of control and 104.27 % of control and 120.54 % of control and 100.00 % of control and 108.64 % of control"}, {"measurement": "Collagen, % of control (single replicates per experiment)", "setting": "WI‐26 VA4 cells [2]; 10 nM, 0.01 µM", "result": "69.88 % of control and 61.64 % of control and 85.14 % of control and 85.08 % of control and 61.39 % of control and 66.93 % of control and 72.84 % of control and 72.49 % of control"}, {"measurement": "Efficacy, % of control, single replicate", "setting": "WI‐26 VA4 cells [2]; 10 nM, 0.01 µM", "result": "49.84 % of control and 107.58 % of control and 96.74 % of control and 53.23 % of control and 57.70 % of control"}, {"measurement": "Collagen, % of control (single replicates per experiment)", "setting": "WI‐26 VA4 cells [2]; 30 nM, 0.03 µM", "result": "16.49 % of control and 14.04 % of control and 24.65 % of control and 24.44 % of control and 22.22 % of control and 23.70 % of control and 29.72 % of control and 17.81 % of control"}, {"measurement": "Efficacy, % of control, single replicate", "setting": "WI‐26 VA4 cells [2]; 30 nM, 0.03 µM", "result": "15.09 % of control and 39.75 % of control and 36.88 % of control and 15.59 % of control and 17.04 % of control"}, {"measurement": "Collagen, % of control (single replicates per experiment)", "setting": "WI‐26 VA4 cells [2]; 100 nM, 0.1 µM", "result": "2.24 % of control and 1.74 % of control and 4.76 % of control and 5.75 % of control and 3.24 % of control and 3.45 % of control (2×) and 3.95 % of control"}, {"measurement": "Efficacy, % of control, single replicate", "setting": "WI‐26 VA4 cells [2]; 100 nM, 0.1 µM", "result": "3.45 % of control and 5.89 % of control and 5.36 % of control and 1.66 % of control and 2.29 % of control"}, {"measurement": "Collagen, % of control (single replicates per experiment)", "setting": "WI‐26 VA4 cells [2]; 300 nM, 0.3 µM", "result": "1.13 % of control and 0.60 % of control and 3.80 % of control and 3.79 % of control and 3.14 % of control and 3.55 % of control and 2.08 % of control and 2.50 % of control"}, {"measurement": "Efficacy, % of control, single replicate", "setting": "WI‐26 VA4 cells [2]; 300 nM, 0.3 µM", "result": "3.41 % of control and 4.49 % of control and 3.15 % of control and 0.88 % of control and 1.96 % of control"}, {"measurement": "Collagen, % of control (single replicates per experiment)", "setting": "WI‐26 VA4 cells [2]; 1000 nM, 1 µM", "result": "4.02 % of control and 2.80 % of control and 2.93 % of control and 2.91 % of control"}, {"measurement": "Efficacy, % of control, single replicate", "setting": "WI‐26 VA4 cells [2]; 1000 nM, 1 µM", "result": "3.21 % of control and 2.82 % of control and 2.14 % of control and 2.22 % of control"}, {"measurement": "Puromycin, % of control, single replicate", "setting": "WI‐26 VA4 cells [3]", "result": "94.54 % of control and 100.63 % of control and 99.91 % of control and 99.10 % of control"}]}]}
